Laboratory results: paper PMC9911399, “Two distinct binding modes provide the RNA-binding protein RbFox with extraordinary sequence specificity”
Substitutions are numbered along the chain they refer to; changes in the protein carry UniProt numbers. The list shows a part of the results.

T1: RBFOX1 RRM RbFoxmut (Fox-RRM*) (Homo sapiens, UniProt Q9NWB1 109-208, R118D;E147R;N151S;E152T)
T1 sequence: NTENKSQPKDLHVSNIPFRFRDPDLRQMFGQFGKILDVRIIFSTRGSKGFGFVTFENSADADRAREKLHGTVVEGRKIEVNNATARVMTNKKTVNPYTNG

B1: GCUAAGG (DNA:RNA)
RNA: GGGAGACCGGAAUUCAGAUUGUCCGCUAAGGUUAAAUCCCGUCGUAGCCACCA
DNA 1: CAATCTGAATTCCGGTCTCCC
DNA 2: TGGTGGCTACGACGGGATT
B2: GACCCGG (DNA:RNA)
RNA: B1 RNA with C26A, U27C, A28C, A29C
DNA 1: CAATCTGAATTCCGGTCTCCC
DNA 2: TGGTGGCTACGACGGGATT
B3: CACUGCA (DNA:RNA)
RNA: GGGAGACCGGAAUUCAGAUUGUCCCACUGCAUUAAAUCCCGUCGUAGCCACCA
DNA 1: CAATCTGAATTCCGGTCTCCC
DNA 2: TGGTGGCTACGACGGGATT
B4: AACAACC (DNA:RNA)
RNA: B3 RNA with C25A, U28A, G29A, A31C
DNA 1: CAATCTGAATTCCGGTCTCCC
DNA 2: TGGTGGCTACGACGGGATT
B5: AUGCUUA (DNA:RNA)
RNA: B3 RNA with C25A, A26U, C27G, U28C, G29U, C30U
DNA 1: CAATCTGAATTCCGGTCTCCC
DNA 2: TGGTGGCTACGACGGGATT
B6: CGGUUCU (DNA:RNA)
RNA: B3 RNA with A26G, C27G, G29U, A31U
DNA 1: CAATCTGAATTCCGGTCTCCC
DNA 2: TGGTGGCTACGACGGGATT
B7: AGAUAAA (DNA:RNA)
RNA: B3 RNA with C25A, A26G, C27A, G29A, C30A
DNA 1: CAATCTGAATTCCGGTCTCCC
DNA 2: TGGTGGCTACGACGGGATT
B8: AAUGUGG (DNA:RNA)
RNA: B1 RNA with G25A, C26A, A28G, A29U
DNA 1: CAATCTGAATTCCGGTCTCCC
DNA 2: TGGTGGCTACGACGGGATT
B9: UUUAUAG (DNA:RNA)
RNA: B1 RNA with G25U, C26U, A29U, G30A
DNA 1: CAATCTGAATTCCGGTCTCCC
DNA 2: TGGTGGCTACGACGGGATT
B10: GAUGGUA (DNA:RNA)
RNA: B3 RNA with C25G, C27U, U28G, C30U
DNA 1: CAATCTGAATTCCGGTCTCCC
DNA 2: TGGTGGCTACGACGGGATT
B11: AUUUGUC (DNA:RNA)
RNA: B3 RNA with C25A, A26U, C27U, C30U, A31C
DNA 1: CAATCTGAATTCCGGTCTCCC
DNA 2: TGGTGGCTACGACGGGATT
B12: AACCCAA (DNA:RNA)
RNA: B3 RNA with C25A, U28C, G29C, C30A
DNA 1: CAATCTGAATTCCGGTCTCCC
DNA 2: TGGTGGCTACGACGGGATT
B13: UAUUGUC (DNA:RNA)
RNA: B3 RNA with C25U, C27U, C30U, A31C
DNA 1: CAATCTGAATTCCGGTCTCCC
DNA 2: TGGTGGCTACGACGGGATT
B14: ACGGAGG (DNA:RNA)
RNA: B1 RNA with G25A, U27G, A28G
DNA 1: CAATCTGAATTCCGGTCTCCC
DNA 2: TGGTGGCTACGACGGGATT
B15: GCAACCU (DNA:RNA)
RNA: B1 RNA with U27A, A29C, G30C, G31U
DNA 1: CAATCTGAATTCCGGTCTCCC
DNA 2: TGGTGGCTACGACGGGATT
B16: UUCAAAC (DNA:RNA)
RNA: B1 RNA with G25U, C26U, U27C, G30A, G31C
DNA 1: CAATCTGAATTCCGGTCTCCC
DNA 2: TGGTGGCTACGACGGGATT
B17: GGGUGUG (DNA:RNA)
RNA: B3 RNA with C25G, A26G, C27G, C30U, A31G
DNA 1: CAATCTGAATTCCGGTCTCCC
DNA 2: TGGTGGCTACGACGGGATT
B18: UUCAACC (DNA:RNA)
RNA: B3 RNA with C25U, A26U, U28A, G29A, A31C
DNA 1: CAATCTGAATTCCGGTCTCCC
DNA 2: TGGTGGCTACGACGGGATT
B19: GAAUGCG (DNA:RNA)
RNA: B3 RNA with C25G, C27A, A31G
DNA 1: CAATCTGAATTCCGGTCTCCC
DNA 2: TGGTGGCTACGACGGGATT
B20: UGAUGUU (DNA:RNA)
RNA: B3 RNA with C25U, A26G, C27A, C30U, A31U
DNA 1: CAATCTGAATTCCGGTCTCCC
DNA 2: TGGTGGCTACGACGGGATT
B21: GAAAGAG (DNA:RNA)
RNA: B1 RNA with C26A, U27A, A29G, G30A
DNA 1: CAATCTGAATTCCGGTCTCCC
DNA 2: TGGTGGCTACGACGGGATT
B22: CACAAUC (DNA:RNA)
RNA: B3 RNA with U28A, G29A, C30U, A31C
DNA 1: CAATCTGAATTCCGGTCTCCC
DNA 2: TGGTGGCTACGACGGGATT
B23: CCUUGGU (DNA:RNA)
RNA: B3 RNA with A26C, C27U, C30G, A31U
DNA 1: CAATCTGAATTCCGGTCTCCC
DNA 2: TGGTGGCTACGACGGGATT
B24: CCCCAUC (DNA:RNA)
RNA: B3 RNA with A26C, U28C, G29A, C30U, A31C
DNA 1: CAATCTGAATTCCGGTCTCCC
DNA 2: TGGTGGCTACGACGGGATT
B25: UAAGUAG (DNA:RNA)
RNA: B3 RNA with C25U, C27A, U28G, G29U, C30A, A31G
DNA 1: CAATCTGAATTCCGGTCTCCC
DNA 2: TGGTGGCTACGACGGGATT
B26: CUGGAUA (DNA:RNA)
RNA: B3 RNA with A26U, C27G, U28G, G29A, C30U
DNA 1: CAATCTGAATTCCGGTCTCCC
DNA 2: TGGTGGCTACGACGGGATT
B27: AACGAAA (DNA:RNA)
RNA: B3 RNA with C25A, U28G, G29A, C30A
DNA 1: CAATCTGAATTCCGGTCTCCC
DNA 2: TGGTGGCTACGACGGGATT
B28: GCCGCGC (DNA:RNA)
RNA: B1 RNA with U27C, A28G, A29C, G31C
DNA 1: CAATCTGAATTCCGGTCTCCC
DNA 2: TGGTGGCTACGACGGGATT
B29: UCUAGAA (DNA:RNA)
RNA: B1 RNA with G25U, A29G, G30A, G31A
DNA 1: CAATCTGAATTCCGGTCTCCC
DNA 2: TGGTGGCTACGACGGGATT
B30: GGUCAAC (DNA:RNA)
RNA: B1 RNA with C26G, A28C, G30A, G31C
DNA 1: CAATCTGAATTCCGGTCTCCC
DNA 2: TGGTGGCTACGACGGGATT
B31: AAAUGUG (DNA:RNA)
RNA: B3 RNA with C25A, C27A, C30U, A31G
DNA 1: CAATCTGAATTCCGGTCTCCC
DNA 2: TGGTGGCTACGACGGGATT

target: T1, RBFOX1 RRM RbFoxmut (Fox-RRM*); assay: EMSA; HiTS-Eq, 1 nM pool, 10 min; buffer printed only for the single-RNA assays: 10 mM Tris pH 7.5, 150 mM NaCl, 3.4 mM EDTA, 0.001% NP-40, 30 C; conditions: tags: His6 N-terminal (pET28a); label: 5' 32P
Method in brief: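 A pool of RNA with 7 randomized nucleotides, 5′-radiolabelled and with DNA-annealed flanks, was equilibrated at 1 nM for 10 min in 50 µL with purified RbFox RRM, wild type or mutant, across increasing protein concentrations. Free RNA was separated by 8% native PAGE, excised, reverse-transcribed, barcoded by PCR and sequenced. Relative association constants were obtained from read-count changes of each RNA species versus the control reaction and normalised to the cognate motif.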

Row | Binder | binding signal
1 | B1 | 0.0793 KA relative to UGCAUGU
2 | B2 | 0.0499 KA relative to UGCAUGU
3 | B3 | 0.161 KA relative to UGCAUGU
4 | B4 | 0.0392 KA relative to UGCAUGU
5 | B5 | 0.167 KA relative to UGCAUGU
6 | B6 | 0.102 KA relative to UGCAUGU
7 | B7 | 0.0997 KA relative to UGCAUGU
8 | B8 | 0.09 KA relative to UGCAUGU
9 | B9 | 0.128 KA relative to UGCAUGU
10 | B10 | 0.136 KA relative to UGCAUGU
11 | B11 | 0.218 KA relative to UGCAUGU
12 | B12 | 0.0716 KA relative to UGCAUGU
13 | B13 | 0.197 KA relative to UGCAUGU
14 | B14 | 0.109 KA relative to UGCAUGU
15 | B15 | 0.0331 KA relative to UGCAUGU
16 | B16 | 0.0619 KA relative to UGCAUGU

Row | Binder | binding signal
17 | B17 | 0.441 KA relative to UGCAUGU
18 | B18 | 0.0688 KA relative to UGCAUGU
19 | B19 | 0.763 KA relative to UGCAUGU
20 | B20 | 0.111 KA relative to UGCAUGU
21 | B21 | 0.0755 KA relative to UGCAUGU
22 | B22 | 0.0401 KA relative to UGCAUGU
23 | B23 | 0.154 KA relative to UGCAUGU
24 | B24 | 0.102 KA relative to UGCAUGU
25 | B25 | 0.107 KA relative to UGCAUGU
26 | B26 | 0.0878 KA relative to UGCAUGU
27 | B27 | 0.113 KA relative to UGCAUGU
28 | B28 | 0.0855 KA relative to UGCAUGU
29 | B29 | 0.096 KA relative to UGCAUGU
30 | B30 | 0.052 KA relative to UGCAUGU
31 | B31 | 0.107 KA relative to UGCAUGU
